# Measurements published in US12479847B2 (DANA-FARBER CANCER INSTITUTE, INC., priority 2019, dated 2025).
# Molecular target: human LRRK2(G2019S) kinase (Homo sapiens, UniProt Q5S007, G2019S)
# Experiment: biochemical
# Settings: not given
# Description: Assay kits from Promega™ Corporation were used according to instructions and adapted as outlined herein. Test compounds were generally prepared with 1:3 serial dilutions for 12 concentrations (from 50 μM to 0.01 nM) ATP competition experiments. The kinase reaction was performed with kinase reaction buffer (40 mM Tris base pH 7.4, 20 mM MgCl2, 0.5 mM dithiothreitol), 0.1 mg/ml bovine serum albumin, distilled H2O). The reaction mixtures contained Pure ATP solution (10 μM), specific substrate (0.2 μg), and (human LRRK2 kinase (25 ng)) or (human LRRK2(G2019S) kinase (16 ng)), in a total assay volume of 5 μl after the manufacturer's protocol. In brief, the kinase reactions were started by addition of ATP to the kinase reaction mixture. The resulting mixture was incubated for 60 minutes at 25° C., and then stopped by adding 5 μl of ADP-Glo™ reagent. After incubation at room temperature in the dark for 40 minutes, 10 μl of kinase detection reagent was added per well, and the mixture was incubated for 10 minutes. Luminescence was measured using a Synergy™NEO2 plate reader (BioTek®) with an integration time of 1 second per well. Positive and negative controls were performed in 0.5% DMSO in the presence and absence of LRRK2 kinases. Curve fitting and data presentations were performed using GraphPad Prism version 5.0 (GraphPad Software, Inc.). The LRKK2 and LRRK2(G2019S) assay with inventive compounds 1-64 are summarized in the table below (Table 1), wherein: […]
row,SMILES,IC50
1,"CCNc1nc(Nc2ccc(C(=O)N3CCC(N4CCOCC4)CC3)c3c2OCCO3)nc2[nH]cc(Cl)c12 [Compound 1, (8-((5-chloro-4-(ethylamino)-7H-pyrrolo[2,3-d]pyrimidin-2-yl)amino)-2,3-dihydrobenzo[b][1,4]dioxin-5-yl)(4-morpholinopiperidin-1-yl)methanone]",< 10 nM
2,"CCCNc1nc(Nc2ccc(C(=O)N3CCC(N4CCOCC4)CC3)c3c2OCCO3)nc2[nH]cc(Cl)c12 [Compound 2, (8-((5-chloro-4-(propylamino)-7H-pyrrolo[2,3-d]pyrimidin-2-yl)amino)-2,3-dihydrobenzo[b][1,4]dioxin-5-yl)(4-morpholinopiperidin-1-yl)methanone]",10 to 100 nM
3,"O=C(c1ccc(Nc2nc(NC3CC3)c3c(Cl)c[nH]c3n2)c2c1OCCO2)N1CCC(N2CCOCC2)CC1 [Compound 3, (8-((5-chloro-4-(cyclopropylamino)-7H-pyrrolo[2,3-d]pyrimidin-2-yl)amino)-2,3-dihydrobenzo[b][1,4]dioxin-5-yl)(4-morpholinopiperidin-1-yl)methanone]",< 10 nM
4,"O=C(c1ccc(Nc2nc(NC3CCC3)c3c(Cl)c[nH]c3n2)c2c1OCCO2)N1CCC(N2CCOCC2)CC1 [Compound 4, (8-((5-chloro-4-(cyclobutylamino)-7H-pyrrolo[2,3-d]pyrimidin-2-yl)amino)-2,3-dihydrobenzo[b][1,4]dioxin-5-yl)(4-morpholinopiperidin-1-yl)methanone]",10 to 100 nM
5,"COCCNc1nc(Nc2ccc(C(=O)N3CCC(N4CCOCC4)CC3)c3c2OCCO3)nc2[nH]cc(Cl)c12 [Compound 5, (8-((5-chloro-4-((2-methoxyethyl)amino)-7H-pyrrolo[2,3-d]pyrimidin-2-yl)amino)-2,3-dihydrobenzo[b][1,4]dioxin-5-yl)(4-morpholinopiperidin-1-yl)methanone]",< 10 nM
6,"CCNc1nc(Nc2ccc(S(=O)(=O)N3CCOCC3)cc2OC)nc2[nH]cc(Cl)c12 [Compound 6, 5-chloro-N4-ethyl-N2-(2-methoxy-4-(morpholinosulfonyl)phenyl)-7H-pyrrolo[2,3-d]pyrimidine-2,4-diamine]",10 to 100 nM
7,"COc1cc(S(=O)(=O)N2CCOCC2)ccc1Nc1nc(NC2CCC2)c2c(Cl)c[nH]c2n1 [Compound 7, 5-chloro-N4-cyclobutyl-N2-(2-methoxy-4-(morpholinosulfonyl)phenyl)-7H-pyrrolo[2,3-d]pyrimidine-2,4-diamine]",100 to 1000 nM
8,"CCCNc1nc(Nc2ccc(S(C)(=O)=O)cc2OC)nc2[nH]cc(Cl)c12 [Compound 8, 5-chloro-N2-(2-methoxy-4-(methylsulfonyl)phenyl)-N4-propyl-7H-pyrrolo[2,3-d]pyrimidine-2,4-diamine]",10 to 100 nM
9,"COCCNc1nc(Nc2ccc(C(=O)N3CCOCC3)c3c2OCCO3)nc2[nH]cc(Cl)c12 [Compound 9, (8-((5-chloro-4-((2-methoxyethyl)amino)-7H-pyrrolo[2,3-d]pyrimidin-2-yl)amino)-2,3-dihydrobenzo[b][1,4]dioxin-5-yl)(morpholino)methanone]",< 10 nM
10,"CNc1nc(Nc2ccc(C(=O)N3CCC(N4CCOCC4)CC3)c3c2OCCO3)nc2[nH]cc(Cl)c12 [Compound 10, (8-((5-chloro-4-(methylamino)-7H-pyrrolo[2,3-d]pyrimidin-2-yl)amino)-2,3-dihydrobenzo[b][1,4]dioxin-5-yl)(4-morpholinopiperidin-1-yl)methanone]",< 10 nM
11,"CNc1nc(Nc2ccc(S(=O)(=O)N3CCOCC3)cc2OC)nc2[nH]cc(Cl)c12 [Compound 11, 5-chloro-N2-(2-methoxy-4-(morpholinosulfonyl)phenyl)-N4-methyl-7H-pyrrolo[2,3-d]pyrimidine-2,4-diamine]",< 10 nM
12,"CNc1nc(Nc2ccc(S(C)(=O)=O)cc2OC)nc2[nH]cc(Cl)c12 [Compound 13, 5-chloro-N2-(2-methoxy-4-(methylsulfonyl)phenyl)-N4-methyl-7H-pyrrolo[2,3-d]pyrimidine-2,4-diamine]",< 10 nM
13,"CNc1nc(Nc2ccc(C(=O)N3CCOCC3)c3c2OCCO3)nc2[nH]cc(Cl)c12 [Compound 14, (8-((5-chloro-4-(methylamino)-7H-pyrrolo[2,3-d]pyrimidin-2-yl)amino)-2,3-dihydrobenzo[b][1,4]dioxin-5-yl)(morpholino)methanone]",< 10 nM
14,"CCNc1nc(Nc2ccc(S(=O)(=O)N3CCC(N4CCOCC4)CC3)cc2OC)nc2[nH]cc(Cl)c12 [Compound 15, 5-chloro-N4-ethyl-N2-(2-methoxy-4-((4-morpholinopiperidin-1-yl)sulfonyl)phenyl)-7H-pyrrolo[2,3-d]pyrimidine-2,4-diamine]",10 to 100 nM
15,"CCNc1nc(Nc2ccc(S(C)(=O)=O)cc2OC)nc2[nH]cc(Cl)c12 [Compound 16, 5-chloro-N4-ethyl-N2-(2-methoxy-4-(methylsulfonyl)phenyl)-7H-pyrrolo[2,3-d]pyrimidine-2,4-diamine]",10 to 100 nM
16,"CCNc1nc(Nc2ccc(C(=O)N3CCOCC3)c3c2OCCO3)nc2[nH]cc(Cl)c12 [Compound 17, (8-((5-chloro-4-(ethylamino)-7H-pyrrolo[2,3-d]pyrimidin-2-yl)amino)-2,3-dihydrobenzo[b][1,4]dioxin-5-yl)(morpholino)methanone]",< 10 nM
17,"CCCNc1nc(Nc2ccc(S(=O)(=O)N3CCOCC3)cc2OC)nc2[nH]cc(Cl)c12 [Compound 18, 5-chloro-N2-(2-methoxy-4-(morpholinosulfonyl)phenyl)-N4-propyl-7H-pyrrolo[2,3-d]pyrimidine-2,4-diamine]",100 to 1000 nM
18,"CCCNc1nc(Nc2ccc(S(=O)(=O)N3CCC(N4CCOCC4)CC3)cc2OC)nc2[nH]cc(Cl)c12 [Compound 19, 5-chloro-N2-(2-methoxy-4-((4-morpholinopiperidin-1-yl)sulfonyl)phenyl)-N4-propyl-7H-pyrrolo[2,3-d]pyrimidine-2,4-diamine]",100 to 1000 nM
19,"CCCNc1nc(Nc2ccc(C(=O)N3CCOCC3)c3c2OCCO3)nc2[nH]cc(Cl)c12 [Compound 20, (8-((5-chloro-4-(propylamino)-7H-pyrrolo[2,3-d]pyrimidin-2-yl)amino)-2,3-dihydrobenzo[b][1,4]dioxin-5-yl)(morpholino)methanone]",10 to 100 nM
20,"COCCNc1nc(Nc2ccc(S(=O)(=O)N3CCOCC3)cc2OC)nc2[nH]cc(Cl)c12 [Compound 21, 5-chloro-N2-(2-methoxy-4-(morpholinosulfonyl)phenyl)-N4-(2-methoxyethyl)-7H-pyrrolo[2,3-d]pyrimidine-2,4-diamine]",10 to 100 nM
21,"COCCNc1nc(Nc2ccc(S(=O)(=O)N3CCC(N4CCOCC4)CC3)cc2OC)nc2[nH]cc(Cl)c12 [Compound 22, 5-chloro-N2-(2-methoxy-4-((4-morpholinopiperidin-1-yl)sulfonyl)phenyl)-N4-(2-methoxyethyl)-7H-pyrrolo[2,3-d]pyrimidine-2,4-diamine]",10 to 100 nM
22,"COCCNc1nc(Nc2ccc(S(C)(=O)=O)cc2OC)nc2[nH]cc(Cl)c12 [Compound 23, 5-chloro-N2-(2-methoxy-4-(methylsulfonyl)phenyl)-N4-(2-methoxyethyl)-7H-pyrrolo[2,3-d]pyrimidine-2,4-diamine]",10 to 100 nM
23,"COc1cc(S(=O)(=O)N2CCOCC2)ccc1Nc1nc(NC2CC2)c2c(Cl)c[nH]c2n1 [Compound 24, 5-chloro-N4-cyclopropyl-N2-(2-methoxy-4-(morpholinosulfonyl)phenyl)-7H-pyrrolo[2,3-d]pyrimidine-2,4-diamine]",10 to 100 nM
24,"COc1cc(S(=O)(=O)N2CCC(N3CCOCC3)CC2)ccc1Nc1nc(NC2CC2)c2c(Cl)c[nH]c2n1 [Compound 25, 5-chloro-N4-cyclopropyl-N2-(2-methoxy-4-((4-morpholinopiperidin-1-yl)sulfonyl)phenyl)-7H-pyrrolo[2,3-d]pyrimidine-2,4-diamine]",< 10 nM
25,"COc1cc(S(C)(=O)=O)ccc1Nc1nc(NC2CC2)c2c(Cl)c[nH]c2n1 [Compound 26, 5-chloro-N4-cyclopropyl-N2-(2-methoxy-4-(methylsulfonyl)phenyl)-7H-pyrrolo[2,3-d]pyrimidine-2,4-diamine]",< 10 nM
26,"O=C(c1ccc(Nc2nc(NC3CC3)c3c(Cl)c[nH]c3n2)c2c1OCCO2)N1CCOCC1 [Compound 27, (8-((5-chloro-4-(cyclopropylamino)-7H-pyrrolo[2,3-d]pyrimidin-2-yl)amino)-2,3-dihydrobenzo[b][1,4]dioxin-5-yl)(morpholino)methanone]",< 10 nM

# Same assay, conditions: read-out: LRRK2(G2019S); ADP-Glo, ATP 10 μM, 60 minutes at 25° C.
row,SMILES,IC50
1,"CCC(C)Nc1nc(Nc2ccc(S(=O)(=O)N3CCC(N4CCOCC4)CC3)cc2OC)nc2[nH]cc(Cl)c12 (stereo in doubt) [Compound 52, (S)—N4-(sec-butyl)-5-chloro-N2-(2-methoxy-4-((4-morpholinopiperidin-1-yl)sulfonyl)phenyl)-7H-pyrrolo[2,3-d]pyrimidine-2,4-diamine]",100 to 1000 nM
2,"CCC(C)Nc1nc(Nc2ccc(S(C)(=O)=O)cc2OC)nc2[nH]cc(Cl)c12 (stereo in doubt) [Compound 53, (S)—N4-(sec-butyl)-5-chloro-N2-(2-methoxy-4-(methylsulfonyl)phenyl)-7H-pyrrolo[2,3-d]pyrimidine-2,4-diamine]",100 to 1000 nM
